Values marked as one replicate rest on one cluster of the flow cell; about a third of the high ones do not repeat.
Test system: ATP
Experiment: switch fluorescence ratio, 500 uM ATP over buffer (Cy3 cluster intensity, sum of 5 cycles each) (fold (ratio)); higher = stronger signal-on switching upon ATP binding; sequences stand for … in TCGTCGGCAGCGTCAGATGTGTATAAGAGACAGTTTTTTTTTTTTTTTTTTTTTTTTT…TC
Conditions: aptamer strand: ATP DNA aptamer (quencher-CACCTGGGGGAGTATTGCGGAGGAAGG + anchor), 100 nM annealed; ATP concentration: 500 uM; one replicate
Procedure, shortened: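 Five buffer/ATP imaging cycles were run on Cy3-labelled switching-strand clusters on a modified Illumina MiSeq flow-cell, with NaOH stripping and re-annealing between cycles. In each cycle, clusters annealed to 100 nM quencher-labelled ATP aptamer were imaged in selection buffer, then after 15 min with 500 uM ATP at 22 °C. Per cluster, the fluorescence ratio is summed target-cycle over summed buffer-cycle Cy3 intensity, averaged per switch-domain sequence. Only clusters within 100-1000 RFU were kept.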
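Further: ATP exposure 15 min at 22 °C before imaging.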

Sequence	switch fluorescence ratio
TACGCAGGCC	1.7
TCGGGCAATT	1.63
ATTGCCTTGT	1.02
AATGGAAGTG	0.945
AGTAAACCCG	0.968
TGAATCGAAG	0.959
GGCCGGCCGG	1.01
CAGAATTGCA	1.01
TTTCGTTGG	0.995
AAACTTCAAC	1.07
ATATGGGTAA	0.982
AGGGGCCTT	1.05
CGTGGCACCA	1.03
AAGACCTTCT	1.67
ACTGAGCTTT	1.04
TATGGTCAA	1.03
CAAACTGTTA	1.04
TTTGGCGGAT	1.01
GATCTGGTGG	1
CATTGCTGTA	0.963
CGCAGGGTAC	3.56
GGCCCGGAG	1.07
CTATTTCAGT	1.04
GACGTTAGTC	0.997
AAAAGTGCT	0.928
CGAAGGGG	1.14

Sequence	switch fluorescence ratio
TTGTGTGAAC	1
TGCCTACACG	1.08
ACGGACTCTG	1.04
GAGTGCCCAG	1.01
CCCATAATAG	1.21
TTGATTCTAA	0.94
GTAGCTGTTG	0.948
CCAAATAAAG	1.01
TGTTGCAGGG	1.03
CAGGCGGCGT	0.98
CCGCAAATCG	4.03
ATCGTCGCTC	0.999
CGGAGACAGT	1.07
AAAGATCGCA	1.05
ATTTGATGCA	1.01
TCAGCACGCC	1.13
TTGATGTGA	1.01
CAAACAATTT	1
ACAGAAGAGT	0.976
CGTGGCCACT	0.965
TTGGGCCTTC	1.02
CCTCGCCAAG	3.59
AACGCTAGGA	1.08
GCCTAGTTCC	1.08
GTCCTCATTT	1.04
ATCGAAAGTG	0.982

Sequence	switch fluorescence ratio
TATTTTTTCA	1
TTGCATTAAC	1.1
GTCATTGCTC	1.1
TTTTGCCGGA	1
GCGAAGCGAT	1.2
GGGGAGTGGC	1.01
TAGTAGAA	0.998
TAGATTAGAT	0.957
GGGAACTGTT	1.1
TCTAGCTGAA	1.01
CGACGGCGCG	1.05
CATAGGTAGG	0.981
ATTTAGTAAT	0.983
ATGCACGCGA	1.28
GTTGTCTTGG	1
ACGAATGTTA	0.992
CGGCGGGACT	1.05
TAAAACGGGA	1.08
ATGATGCTTA	1.01
CGTCAGCACG	1.06
ACATATTCTA	1.04
TAGAGAGATG	0.977
ATATGAGGGT	0.959
AGTCGGTATC	0.965
CGGACCTTTT	0.979
CGGAAGCCTT	1.01

Sequence	switch fluorescence ratio
GTGGGGGT	1.03
TTGGTCGCTC	1.01
ATCAAGTCCA	0.987
TAAGAGGTAG	0.983
CAGCTAAGGG	1.02
CCGTGGGTTC	1.11
ATGATCAGGT	0.94
CATTGCTAAA	1.04
TTAGTCCAAA	1.01
ACTCTTGCTA	1.3
GCTGGCGGGA	0.925
TTGGCTATCT	0.964
CGGAATTGTG	0.959
GAAGCGCGGC	1.06
GAACTATATC	1.02
TCCGAGAGGT	1.02
GGTTTTCAAT	1.01
AGGATCGTGG	1
AGCCACCCTT	0.995
CTATCGTCAT	1.04
CCAATGGTT	1.02
ATAACTGAG	1.07
GTGAAGGGGG	0.969
CAGTCAAACC	1.05
TGCGCCTGA	1.02
TGCTCTAGGG	1.01

Sequence	switch fluorescence ratio
ATGACATTAA	1.03
CGTATAATTG	0.994
TCTCTTAGAT	0.981
CATCGATGGA	0.988
TGTCAGAGGA	1.05
CGAAGATTTC	1
TAATTTTTA	0.998
TCGCATACGG	2.61
GAGGATCGAA	1
TCTATTAACA	1
AAACATGCAA	1.1
CACCGGTCGC	0.998
ATTATAGAGA	0.998
CGGTGGCGAA	3.1
AGGAGTTGTG	0.976
TTGACACAGG	1.02
AACTCTCTTA	1.02
GATAGATACG	1
GAGGATTATG	1.04
CAATAGAAAC	1.08
AACAATCATA	0.997
ATTTTTTATA	0.964
CCACCTGCTC	1.97
GCTGGTGCCA	1.02
TGACCCAGAT	0.958
TATTAATATG	1.07

Sequence	switch fluorescence ratio
CAGAAGGGAC	1.04
GATACTTATA	1
GCGCCAAGTT	0.966
TCACTTAGCT	1
CTCATTGCTG	0.925
TAAACCCCAA	1.05
TTGTAGAATT	1.01
GTTTGGATTA	1.01
CCTTTAATCT	1.04
GCATGAGCAT	0.999
CCGCTGTCGG	1.1
CCCTTGTACT	1.05
TGCATTACAT	1.06
ATACTTAACT	1.14
GACTGCAGAT	1.11
TGTGAGTATC	0.963
GCCCTTTGTC	0.978
CTACTGCATA	2
AATCGCGGA	1.03
GAGACAATTT	0.986
CCGGTTATCT	1.06
TGAGAGTTG	0.99
CAGGTGTCAA	1.1
GAATACATGT	1.01
CAGTCGCCAA	1.06
AGTACGAGCG	0.996

Sequence	switch fluorescence ratio
GTGTAGACGC	0.96
CTGTTCCTAT	1
TTTCCTTGCG	1.05
GACGGGTCGG	0.983
TTGATGGCAG	1.02
GCAAATTTAA	1.01
GCCCCTTTCA	1.01
CGGATTGGCA	0.921
TAAATTTA	0.995
GCTGAAAGTA	0.999
TTACAATTGC	1.36
CTGGTATTG	0.995
CAATAGCTGA	1.01
AGGTACGCAC	1.72
TCTCACTAG	1.01
CTCTAGGCTG	1.06
ATTGTTACTA	0.997
CCAAGGGCGC	1
TCCACTAAAA	1.03
CTGGGAACAT	1.01
GCTAACCGGT	0.983
GCTGTGGGAC	0.998
TAGGTTGGGC	0.968
AGTTGGTGGG	0.969
AACGGTCTCG	1.02
TGAGTCAAGA	0.995

Sequence	switch fluorescence ratio
TCCAATAGTG	1.01
GTAGTACTT	1.03
AACATTTACT	1.02
TTTCTTTGTG	0.99
GAAAACAGAT	0.992
ACGGTTAGAT	1.04
ATGAGGCCGA	0.978
TACCTCGTCT	0.986
TCTTTACGGA	1
CGTGCAAAAG	1.06
AGAGGCGGGG	1.02
GAGAAAGCAA	1.09
AAGAACGACG	1.03
CCCCCTAGCG	2.35
ACCATGTTCT	0.96
TGATACGTTA	1.02
GAGTGTGCAA	1.09
TAAAACGGCA	1.03
TGAGTACTAT	1.01
